Residues, ends and D or L forms follow the SMILES beside them.
Tested on: A673 xenograft tumors
Assay: In vivo NIR imaging of ES xenograft model
Conditions: blocking group: locally incubated with 50 μM blocking agent (intratumoral pre‐injection, 1 h) before 150 μL CS2‐N‐E9R i.v.; n = 3 mice
Protocol: All procedures were carried out in compliance with the guide for the care and use of laboratory animal resources and the national research council, and approved by the Animal Biosafety Level 3 Laboratory of Wuhan University Institutional Animal Care and Use Committee (2019131). Mice were purchased from the Model Animal Laboratory of Wuhan University Zhongnan Hospital and housed in a specific pathogen‐free animal facility with a controlled environment (12 h light/dark cycle at 21 °C). To establish an ES xenograft mice model, A673 cells were grown subcutaneously around the right limb of 12‐16 g, 4‐week‐old Balb/c nude mice. Twenty‐one days after inoculation, the xenograft tumor mice were randomly divided into 3 groups (Experimental group/ CS2‐N‐E9R; Control group/ CS2‐N‐E; Blocking group/ CS2‐N‐E9R+E9R). Probes were freshly prepared at the concentration of 25 μM. The experimental group was given 150 μL targeted probe CS2‐N‐E9R, and the control group was given 150 μL nontargeted probe CS2‐N‐E through caudal vein injection. […]
To quantitate NIR fluoresces signal, a circular region‐of‐interest (ROI) was manually defined in the interested region, and the average signal within this ROI was obtained. […] The statistical significance of differences was determined by ANOVA and LSD‐t test. […]

## CC[C@H](C)[C@H](NC(=O)[C@@H](NC(=O)[C@H](C)NC(=O)[C@H](CC(=O)O)NC(=O)[C@H](CC(C)C)NC(=O)[C@@H]1CCCN1C(=O)[C@@H]1CCCN1C(=O)[C@@H]1CCCN1)C(C)C)C(=O)N[C@@H](CCC(=O)O)C(=O)N[C@@H](C)C(=O)O [E9R] (H-PPPLDAVIEA-OH; N-terminus assumed)
  tumor region fluorescence of CS2‐N‐E9R versus background after blocking: no fluorescence higher than the background

From PMC8637573, “EWS–FLI1‐targeting peptide identifies Ewing sarcoma tumor boundaries and lymph node metastasis via near‐infrared imaging” (Molecular Oncology, 2021)
